Experimental data reported in the antibiotic and cytotoxicity screens of Wong et al. (2023).
The other results are listed elsewhere or left out.

Legend:
[1] = tested on: HSkMC (human skeletal muscle cells); test: cytotoxicity call (relative viability < 0.9); details: 10 µM
[2] = tested on: HepG2; test: cytotoxicity call (relative viability < 0.9); details: 10 µM
[3] = tested on: S. aureus RN4220; test: growth inhibition call (relative growth <= 0.2); details: 50 µM

C[C@H]1CN([C@@H](C)CO)C(=O)c2cccc(NC(=O)c3cnccn3)c2O[C@H]1CN(C)Cc1ccccc1
inactive: cytotoxicity call [1] | cytotoxicity call [2] | growth inhibition call [3]

Cc1nn(C)c2c1[C@@H](c1ccc(C(F)(F)F)cc1)C(C#N)C(=N)O2 (some centres undefined)
inactive: cytotoxicity call [1] | cytotoxicity call [2] | growth inhibition call [3]

O=C1NCCCc2occc21
inactive: cytotoxicity call [1] | cytotoxicity call [2] | growth inhibition call [3]
